The values below come from PubChem BioAssay AID1508642 (National Center for Advancing Translational Sciences (NCATS), 2021).

Molecules are shown by their SMILES. The whole screen tested about 43,000 compounds, of which about 200 (0.47%) were called active. Not shown: some 12% with an inconclusive outcome. Calls come from the whole dose curve; as a rule, active = well fitted cell-killing curve with a large enough effect; inconclusive = small, poorly fitted or top-dose-only effect, or effect the other way; inactive = flat fitted curve, though single readings scatter. Some of the results follow.
% is set by controls: 0 for no effect and ±100 for the full control effect.

A short description of this experiment: Cell viability qHTS assay in S16 Pmp22-F2sN cells. Note: nearly all actives have a fitted effect of over 65% in size. As to conditions: S16 Pmp22-F2sN Schwann cells (luciferase reporters placed in the Pmp22 gene) viability, CellTiter-Glo, 24 h; series mostly up to 57.5 µM; activity change, negative = cytotoxicity: at the top concentration. The gist of the method: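 CellTiter-Glo counter-screen, qHTS, 1536-well. Cells: S16(c9) Pmp22-F2sN, 500-1,000/well in DMEM + 10% FBS. Cpd 23 nL pin transfer, 24 h, 37C/5% CO2. Read: luminescence, CCD imager.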
In the case of `Cc1ccc(-n2ncc3c(N4CCC(C)CC4)ncnc32)cc1C`, the “activity change, negative = cytotoxicity” value was inactive: 13.2%.
Then `Cc1cccc(-c2noc(CNC(=O)c3ccc(C)cc3C)n2)c1`, with inactive: -20.5%.
The result for `COc1ccc(C(C(=O)NCc2ccccc2)N(C(=O)Cn2nnc3ccccc32)c2ccc(F)cc2)cc1` (configuration not stated) reads inactive: 5.06%; that for `Cc1ccc(CNC(=O)COCc2cc(-c3ccc4c(c3)OCO4)on2)cc1`, inactive: 2.75%.
Then `CCOc1ccc2cc(-c3nnc(Nc4ccccc4F)s3)c(=O)oc2c1`, with inactive: 4.99%; and `CCOc1ccc(S(=O)(=O)c2cn(Cc3ccc(C)cc3)c3ccc(OC)cc3c2=O)cc1`, with inactive: -6.62%; and `Cc1ccc(-c2cnc(NCc3ccc(C(C)C)cc3)n2C)cc1`, with inactive: 4.86%.
In the case of `O=C(NCc1cccc(Br)c1)c1ccc(-n2cnc3cccnc32)cc1`, the “activity change, negative = cytotoxicity” value was inactive: -5.81%.
Then `Cc1ccccc1CNCCCSc1nnnn1-c1ccccc1`, with inactive: 10.2%; and `Cc1ccc2oc(=O)c3cnn(CC(=O)Nc4ccc(Br)cc4C)c3c2c1`, with inactive: 3.46%.
The result for `CCc1ccccc1NC(=O)C(=O)c1cc(C)n(-c2ccccc2F)c1C` reads inactive: -2.79%; that for `Cc1cc(C)c(Cn2c(C)c(CNCc3ccccc3C)c(C(=O)O)c2C)c(C)c1`, inactive: -9.46%; that for `O=C(c1ccco1)N(Cc1cccnc1)c1nc2c(F)cccc2s1`, inactive: 24.7%.
The result for `CCc1cccc(C)c1NC(=O)COCc1cc(-c2ccc3c(c2)OCO3)on1` reads inactive: -12.5%; that for `CCOCCCNC(=O)C(c1ccc(Cl)cc1)N(Cc1ccc2c(c1)OCO2)C(=O)c1ccccc1O` (configuration not stated), inactive: -1.36%.
In the case of `Cc1cccc(NC(=O)c2ccc(F)c(S(=O)(=O)N(C)C3CCCCC3)c2)c1`, the “activity change, negative = cytotoxicity” value is inactive: 2.57%.
As to `CCOc1ccc(C(=O)N2CCN(Cc3cc(=O)n4nc(-c5cccc(OC)c5)sc4n3)CC2)cc1`, the “activity change, negative = cytotoxicity” value is inactive: -4.32%.
On to `CCN(Cc1nc(-c2ccc(OC)cc2)oc1C)S(=O)(=O)c1ccc(Cl)cc1`, for which the “activity change, negative = cytotoxicity” value was inactive: -20.3%.
Then `COc1ccc(-c2nc(S(=O)(=O)c3ccccc3)c(N3CCCCC3)o2)cc1`, with inactive: -27.1%; and `CCCSc1ncc(Cl)c(C(=O)Nc2ccc(CC)cc2)n1`, with inactive: -5.47%; and `Cc1ccc(CNC(=O)CSc2nc3ccsc3c(=O)n2-c2ccc(C(=O)O)cc2)cc1`, with inactive: 12.2%.
Then `CCN(CCCNC(=O)c1cc2cc3cc(OC)ccc3nc2s1)c1ccccc1`, with inactive: -0.951%.
Then `COc1ccc(NC(=O)Cn2c(=O)n(-c3ccccc3)c(=O)c3ccc(C(=O)NCc4ccc5c(c4)OCO5)cc32)cc1`, with inactive: -3.32%; and `CCOC(=O)C1CCC(CN(Cc2c(Cl)cccc2Cl)S(=O)(=O)c2ccc(F)c(C)c2)CC1` (configuration not stated), with inactive: -3.85%; and `COc1cccc(NC(=O)CCNS(=O)(=O)c2ccc3c(c2)CCCC(=O)N3)c1`, with inactive: 4.29%.
Regarding `CCOCCCNC(=O)N1CCN(S(=O)(=O)c2ccc3c(ccn3C)c2)CC1`, the “activity change, negative = cytotoxicity” value was inactive: -6.53%.
The result for `COc1ccc(-c2noc(-c3ccc(N4CCOCC4)c([N+](=O)[O-])c3)n2)cc1OC` reads inactive: -0.288%; that for `COc1ccccc1N1CCN(CCC(=O)Nc2cccc(F)c2)CC1`, inactive: -18.1%; that for `O=C(Cn1c(=O)n(-c2ccccc2)c(=O)c2ccc(C(=O)NCc3ccc4c(c3)OCO4)cc21)Nc1ccc(Br)cc1F`, inactive: 8.16%.
Then `CCOc1ccc(CNC(=O)c2cnc(SC)nc2CC)cc1`, with inactive: -1.47%.
Regarding `COc1ccc(CNc2nc(-c3ccc(OC)c(OC)c3)cc(C(F)(F)F)n2)cc1`, the “activity change, negative = cytotoxicity” value was inactive: 16.5%.
As to `CCCCSCCCNC(=O)CN1C(=O)COc2ccc(S(=O)(=O)N3CCCC3)cc21`, the “activity change, negative = cytotoxicity” value was inactive: 0.184%.
Regarding `Cn1c(=O)c2c(SCC(=O)NCC3CCCO3)nc(-c3ccccc3F)nc2n(C)c1=O` (configuration not stated), the “activity change, negative = cytotoxicity” value was inactive: 2.4%.
The result for `CCOC(=O)c1ccc(NS(=O)(=O)c2cc3c(cc2C)n(C)c(=O)c(=O)n3C)cc1` reads inactive: 0.135%.
As to `CC(C)NC(=O)c1cnc2sc(N3CCCCCC3)nn2c1=O`, the “activity change, negative = cytotoxicity” value was inactive: 26.5%.
The result for `COc1ccc(CN(C(=O)Nc2ccccc2)c2ccccn2)cc1OC` reads inactive: 2.98%; that for `O=S(=O)(Nc1c(F)cccc1F)c1ccc2c(c1)OCCO2`, inactive: 7.17%.
The result for `Cc1ccc2oc(C(=O)Nc3c(C(=O)c4ccc(C)c(F)c4)oc4ccccc34)cc(=O)c2c1` reads inactive: 2.34%; that for `COc1ccc(C)cc1NC(=O)C(CCSC)NS(=O)(=O)c1ccc2c(c1)oc(=O)n2C` (configuration not stated), inactive: -8.5%.
Then `CCn1nnc2cc(C(=O)Nc3cccc(C(F)(F)F)c3)ccc21`, with inactive: -12%; and `CCOC(=O)N1CCc2c(sc3c2c(=O)n(Cc2ccccc2)c(=O)n3CC(=O)Nc2ccccc2F)C1`, with inactive: 2.41%; and `COc1cccc(NC(=O)c2sc3nc(C)c(C(=O)Nc4ccc(C)cc4C)c(-c4ccc(Br)cc4)c3c2N)c1`, with inactive: -22.1%.
With `Cc1cc(Cl)ccc1NC(=O)C1CCN(S(=O)(=O)c2ccc3[nH]c(=O)ccc3c2)CC1`, the “activity change, negative = cytotoxicity” value is inactive: -3.36%.
Then `Cc1ccc2nc(SC(Cc3cc(Cl)ccc3Cl)C(=O)O)[nH]c2c1` (configuration not stated), with inactive: 0.865%.
Then `COc1ccc(CNC(=O)c2cc3sccc3n2C)cc1`, with inactive: -1.38%; and `NC(=O)C1(N2CCCCC2)CCN(C(=O)Nc2ccc(Cl)c(Cl)c2)CC1`, with inactive: -11.9%; and `CCOC(=O)c1cc(-c2ccccc2)nn1Cc1ccccc1`, with inactive: -1.82%.
The result for `O=C(CCOc1ccccc1)N(Cc1cccnc1)c1nc2c(Cl)cccc2s1` reads inactive: -12.2%; that for `Cc1ccc(C2c3[nH]c4ccccc4c3CCN2C(=O)c2ccc(N(C)C)cc2)cc1` (configuration not stated), inactive: -3.2%.
With `Cc1cccc(Cn2c(=O)n(CCc3ccccc3)c(=O)c3sc4ccccc4c32)c1`, the “activity change, negative = cytotoxicity” value was inactive: 11.9%.
The result for `Cc1ccc(CCNC(=O)CCSCc2ccccc2F)cc1` reads inactive: 14.8%; that for `CCc1cccc(CC)c1NC(=O)Cc1csc(C)n1`, inactive: 1.58%; that for `Cc1cc(Nc2cccc(F)c2)n2nc(-c3ccco3)nc2n1`, inactive: 6.93%.
The result for `Cc1cccc(CN2C(=O)c3ccccc3Sc3ccc(C(=O)NCCc4ccccc4)cc32)c1` reads inactive: 1.17%.
Then `CCC(=O)N1CCc2cc(CNS(=O)(=O)c3ccc(Cl)s3)ccc21`, with inactive: -19.4%.
As to `O=C(Cn1nc(C(F)(F)F)c2c1CCCC2)Nc1ccc(F)c(Cl)c1`, the “activity change, negative = cytotoxicity” value is inactive: -11.5%.
For `COc1ccc(-c2ccc(=O)n(CC(=O)Nc3ccc(N(C)C)cc3)n2)cc1`, the “activity change, negative = cytotoxicity” value was inactive: 2.07%.
The result for `Cc1c(C(=O)NCc2ccc(F)cc2)sc2nc3n(c(=O)c12)CCC3` reads inactive: 14.1%.
For `CCOc1ccc(NC(=O)c2cc(CN3CCCC3)on2)cc1`, the “activity change, negative = cytotoxicity” value was inactive: 0.228%.
The result for `COc1ccc(OC)c(NC(=O)Cn2cc(C(=O)c3cccs3)c3ccccc32)c1` reads inactive: -34.9%.
`CSc1ccc(C2c3c(oc4ccc(F)cc4c3=O)C(=O)N2c2ccc(C)cn2)cc1` (configuration not stated): the “activity change, negative = cytotoxicity” value was inactive: -0.199%.
Then `Cc1c(NC(=O)c2cc3ccccc3o2)cccc1-c1nc2ccccc2o1`, with inactive: -2.41%.
The result for `Cc1ccc2nc(Nc3ccc(Br)cc3)nc(-c3ccccc3)c2c1` reads inactive: -16.1%; that for `Cc1cccc(N(C)C(=O)C2CCN(S(=O)(=O)c3cccc4nonc34)CC2)c1`, inactive: -0.0268%.
Then `CCOc1ccc2oc(=O)cc(CN3CCN(C(=O)c4ccc(Cl)cc4)CC3)c2c1`, with inactive: -11.4%; and `COc1ccc(-c2nc3ccc(C(=O)NCc4ccccc4)cc3nc2-c2ccc(OC)cc2)cc1`, with inactive: 2.99%.
For `Cc1ccccc1NC(=O)c1ccccc1NC(=O)c1ccccc1F`, the “activity change, negative = cytotoxicity” value is inactive: 2.92%.
Regarding `CCCSc1nnc2c(n1)OC(CC)N(C(C)=O)c1ccccc1-2` (configuration not stated), the “activity change, negative = cytotoxicity” value is inactive: -0.119%.
The result for `O=C(CN1C(=O)COc2ccc(S(=O)(=O)N3CCCCC3)cc21)NCCc1ccc(Cl)cc1` reads inactive: 9.38%.
Then `O=C(Nc1nnc(S(=O)(=O)N2CCCC2)s1)c1ccccc1Cl`, with inactive: -5.5%; and `CCn1ccc2cc(S(=O)(=O)N3CCC(C(=O)NCc4ccc(OC(C)C)cc4)CC3)ccc21`, with inactive: 7.69%; and `COc1ccc(N2CCN(S(=O)(=O)c3c(C)nc4sc(C)cn4c3=O)CC2)cc1`, with inactive: 8.52%.
Then `COc1ccc(Cc2nc3c4cnn(-c5ccccc5Br)c4ncn3n2)cc1`, with inactive: -4.98%.
Regarding `CC1=C(c2ccc(C)c(C)c2)S(=O)(=O)N(Cc2ccc(C(=O)NCc3ccc(C)cc3)cc2)C1=O`, the “activity change, negative = cytotoxicity” value was inactive: 6.32%.
With `COC(=O)COc1ccc(Oc2nc(NC(C)(C)C)nc(N3CCOCC3)n2)nn1`, the “activity change, negative = cytotoxicity” value is inactive: 18.8%.
The result for `CCOc1ccccc1CNC(=O)Cn1nc(C)c2nn(-c3ccc(Cl)cc3)c(C)c2c1=O` reads inactive: -4.46%; that for `O=C(CSc1nc(-c2ccccc2)cc(=O)[nH]1)Nc1ccccc1F`, inactive: -1.22%; that for `COc1ccc(-c2cnc(NCc3ccc(C)cc3)n2C)cc1`, inactive: -15.9%.
Then `CC1=C(C(=O)Nc2ccc(C)c(C)c2)C2(CCCCCC2)OC1=O`, with inactive: -4.31%.
`COc1cc(C2NC(=O)N(C)C3=C2C(=O)N(c2ccccc2)C3)ccc1O` (configuration not stated): the “activity change, negative = cytotoxicity” value is inactive: 5.72%.
Then `CCC(C)NC(=O)c1sc2nc(C)c(C(=O)Nc3ccc(C)cc3C)c(-c3ccc(Br)cc3)c2c1N` (configuration not stated), with inactive: -1.37%; and `Cc1ccc2[nH]c(=O)c3cc(C(=O)N4CCN(c5ccccc5F)CC4)sc3c2c1`, with inactive: 23%; and `CCN(CC)c1nc2c(S(=O)(=O)c3ccc(C)cc3)nnn2c2ccsc12`, with inactive: 0.504%.
Take `COc1ccccc1NC(=O)CSc1oc(-c2cccs2)nc1S(=O)(=O)c1ccc(C)cc1`: the “activity change, negative = cytotoxicity” value is inactive: 5.19%.
Then `O=C(NCc1ccccc1)c1cccc(NC(=O)N2CCSc3ncccc32)c1`, with inactive: -1.4%.
The result for `COc1ccc(CCNC(=O)CSc2nc3ccccc3nc2Cc2ccc(C)cc2)cc1OC` reads inactive: 19.4%.
Then `COc1ccccc1CNC(=O)c1nn(-c2ccc(C)cc2)c(=O)c2c1c1ccccc1n2C`, with inactive: 48.9%; and `Cc1cccc(CSc2ncc(Cl)c(C(=O)Nc3sc4c(c3C#N)CCCC4)n2)c1`, with inactive: -0.562%; and `O=C(COc1ccc(F)cc1)NC1CC(=O)N(c2ccc3c(c2)OCCO3)C1` (configuration not stated), with inactive: -2.14%.
On to `COc1cccc(NC(=O)C2CCN(c3cc(C)nc4c(-c5ccc(Cl)cc5)c(C)nn34)CC2)c1`, for which the “activity change, negative = cytotoxicity” value is inactive: -2.74%.
Then `Cc1ccc(-c2nn3c(=O)cc(CN4CCN(S(=O)(=O)c5ccc(Cl)cc5)CC4)nc3s2)cc1`, with inactive: -13.2%.
Then `COc1ccc(CNC(=O)c2ccc3c(c2)CCN3S(=O)(=O)c2ccc(Cl)cc2)cc1`, with inactive: -0.893%; and `CCc1ccccc1-n1c2c(cc(-c3nc(-c4ccc(Cl)cc4)cs3)c1=O)C(=O)CC(C)(C)C2`, with inactive: -3.57%; and `COc1ccc(Cc2nc3ccc(C(=O)NCCc4ccccc4)cc3o2)cc1`, with inactive: -2.84%.
As to `CCOC(=O)c1c(C)[nH]c(C)c1S(=O)(=O)N1CCN(c2ccc(Cl)cc2)CC1`, the “activity change, negative = cytotoxicity” value was inactive: -23.9%.
Take `CCOc1ccc(OCC)c(NS(=O)(=O)c2ccc3[nH]c(=O)ccc3c2)c1`: the “activity change, negative = cytotoxicity” value was inactive: 11.8%.
Regarding `CC(=O)Nc1ccc(NC(=O)Cn2c(=O)ccc3cc(S(=O)(=O)N4CCC(C)CC4)ccc32)cc1`, the “activity change, negative = cytotoxicity” value is inactive: -6.56%.
